Reference: the supplement of paper PMC3334620
In all, about 33,000 sequences were measured (“E-score (-0.5 to 0.5)”: median about -0.016, highest 2% from about 0.31 on). The list shows a part of the results.

molecular target: Cst6 (UniProt P40535); assay: PBM E-score (8-mer binding enrichment) (E-score (-0.5 to 0.5)); higher = stronger / more preferred TF binding; most listed sequences are background and not binding sites; conditions: protein concentration: 200 nM; construct: GST-DNA-binding domain
Protocol: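 Universal 'all 10-mer' protein binding microarrays (Agilent AMADID 015681) probed with GST-tagged S. cerevisiae TFs (full-length or DBD) made by in vitro transcription/translation (PURExpress), about 100-200 nM. Bound TF was detected with fluorescent anti-GST. Each ungapped 8-mer (which stands for itself and its reverse complement) is scored by the PBM enrichment score (E-score), a modified Wilcoxon-Mann-Whitney statistic from -0.5 to +0.5, computed with the Universal PBM Analysis Suite. Scale: above 0.35 generally sequence-specific binding.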

Sequence	PBM E-score
CATCTGCA	0.0895
CTTGGCCC	-0.272
GTTTAGTA	0.236
AAGCTCTG	-0.22
CTAAGCAA	-0.0396
ACGAATTG	0.129
GTTTTGCA	0.102
GAGCTTCA	-0.0375
AGTTTCTG	0.0556
AGCTCTCA	-0.143
CGAACGAA	0.0744
CCCAGTGC	-0.121
GATCGAAC	0.0108
CAAGTTTA	0.139
GCGGTTAC	0.191
ATAGCAGC	-0.226
AAATAAGT	0.14
ACCCTAGC	-0.247
ATACATAC	0.0814
GTAGTGGA	0.12
ACCACTCG	0.0831
CCCTCCTC	-0.264
AGTCTTTG	-0.16
GGCCTTGA	-0.206
TCTTTCAA	-0.0829

Sequence	PBM E-score
CTTTGACC	0.0719
ACGTACCA	0.195
AATCTCTC	0.082
GCATCGGA	-0.0274
CGGATTCA	-0.229
GCTGAGGA	-0.236
ACGGTTAG	-0.241
TAACAGCA	0.116
AGGAATGC	-0.148
AATCCGAG	-0.0702
AACAGCAC	0.0862
CATAGAGG	-0.0937
GCGGGTAA	-0.0692
AGCATTAT	0.115
GGCCGTAC	0.273
ACGAGGTC	0.00072
ACCCGAAA	-0.0247
GGGTATTA	-0.0844
CTCATTTC	-0.0101
CGTGAACA	0.105
AATTAGGC	0.152
ATATGTGC	0.103
ATTTGCCC	-0.00418
ACTGGTAC	-0.00774
CGTCATGA	0.461

Sequence	PBM E-score
ATACCGAG	-0.104
TAGGTCAA	0.175
CGTAATAG	0.318
ATAGTCTA	-0.173
TCCGTCCA	-0.0937
CCTAATTA	-0.00674
CCCCCATC	-0.294
GTCCTTAA	0.00524
AATCCGGC	-0.295
ACAAACAA	0.115
CTGCATCC	-0.101
ATATATTC	0.272
CAGTCATC	-0.0341
CCACCTGC	-0.0532
CCTTTCTC	-0.118
CGTACCGA	-0.0983
AGAAATCC	0.0363
AGGGATTA	0.0102
AATCCGTC	0.155
CGAAGAAG	0.00861
GAACGGGA	-0.138
ACCCAAGC	-0.273
CCTGAGCA	-0.0829
ACTACCAC	-0.0255
GTGGCGGA	-0.226

Sequence	PBM E-score
CCTTGGAA	-0.125
AGGATACA	0.0231
AAACTCTT	-0.108
GACAAGGA	-0.153
CTAGTGCC	-0.125
CAGCCACG	-0.052
ACAAGGCA	0.0619
ACTACCTG	-0.0823
GAGTGGCA	0.0514
AGTCTCAA	-0.217
GTACACAC	-0.0526
TGGGCCCA	-0.242
TAACCAAA	0.18
AAAAGGCT	-0.0129
ACTAGGTA	-0.0717
CCGACATA	-0.032
TGACTAAA	0.186
CTAAATAC	0.0876
CTTGATGA	0.24
ACCTGTCG	0.066
CGTCGAAG	0.0366
CGTCCATC	0.078
CGAAGATC	-0.0128
AGTGGTAA	0.00907
ATTGAGAA	0.164

Sequence	PBM E-score
ACCGTCGA	-0.0554
GGCGTAAA	0.153
GCCAAAAA	0.145
ATAAACAC	0.0891
CGCCGATC	0.0491
TGGGACAA	-0.0808
ACGAACAG	-0.0654
ACATTCCT	-0.116
CATCTCTA	0.136
AAGAACCG	0.123
GACCGCAA	-0.0265
GCGGTTCA	-0.158
GCAACCTA	-0.0372
CCCCCAAG	-0.23
AGCCGAAC	-0.127
CCAGCACG	-0.23
CTCAGGAC	0.0661
AACTACAT	0.0604
ACTTCTAT	-0.00535
CCTCCAGG	-0.437
ATGCACGA	-0.0573
CACAAACC	0.0115
GAGCTCCA	-0.266
ATAATTAA	0.322
AGCATCAC	0.0541

Sequence	PBM E-score
ACAAGTGT	-0.0775
ACATGGAG	-0.247
AAGACATT	-0.169
GATCGGTA	0.0438
ACGATCTG	-0.131
AGCAGGGC	-0.138
GCACCGCC	-0.232
GCATGAAA	0.117
CGCCCTGA	0.0277
CTGGTATC	-0.173
GTTTTCTA	0.228
ATAATCCG	-0.00488
AGTACTTC	0.0282
GCCCTGTA	-0.0674
GAAAAAGA	0.07
GCAAAAAA	0.207
ATTCCGGA	-0.094
GCGTTACA	0.0402
ATCTGTGG	-0.234
GCAGCAGA	-0.0713
GCGCGGGA	-0.137
GCGCCACC	-0.043
ATTTCATC	0.294
CAGGAATC	-0.0374
TATAATGA	0.273

Sequence	PBM E-score
AGAACCAG	-0.185
ATTAAGTG	0.127
GGTTCAAA	0.126
CGCACCAG	0.0262
CGTATCCC	-0.17
AGGCGAAG	-0.139
CCGCCCAA	-0.209
ATTTGCAG	0.078
GCGTTCCA	-0.0973
CAGACGCC	-0.121
CTACCTTA	-0.00472
TACAGGAA	0.0431
GAGTTCTA	-0.136
ATGATTCG	0.188
AGCGTGAT	0.01
GTACGTCA	0.49
CCTTTCAC	0.00451
ATTGGCCG	0.0339
CAACGCTC	0.0184
CAGAGGAG	-0.0824
CCTTGGCC	-0.357
GCATATTA	0.186
GCGTTTCC	0.106
AGTCGTAG	-0.0868
AGTAGACT	-0.18

Sequence	PBM E-score
GAATACTA	0.192
ATAGGTTA	0.143
GACGTTCC	0.0148
TAGCCACA	0.0365
TCTTCCAA	-0.0464
GACGAGGC	-0.0967
AACACCTT	0.113
AAACATCG	-0.0657
CATAAAAA	0.293
CCTAAATC	0.0457
GGATTCAA	-0.0994
CAGCATAA	0.0705
ACATTGCT	0.00283
CGGTCCTA	-0.329
TGGGGAAA	0.0662
AATTCTAA	0.206
CTTGTTGA	0.12
CAGGGCAG	-0.223
AGTATTCG	0.048
CAAAGTTC	-0.162
CTTATTAA	0.141
CGGCGGCC	-0.0828
TACTAACA	0.0701
CATTGTGC	0.188
GCCCATCC	-0.267

Sequence	PBM E-score
AATCGGCT	0.124
ACACCGCG	-0.122
CCTGTGAG	0.00154
GAACCGGC	-0.26
CCTTATCA	0.245
ACATTCTC	0.175
ACCCAGAC	-0.115
CGTGCGGA	0.0478
AATCCGTG	-0.0245
CAGGAGAA	-0.0565
GGTACACA	-0.237
CACAGATG	0.0492
CTAGGTTC	-0.181
ACTGGCTC	-0.245
AATCAACG	0.128
ACGTTCGC	-0.0833
CCATGAAC	-0.11
AGAACGGC	0.118
TATGGACA	0.0624
AGTTGCAC	-0.25
ATGTTAGC	0.0356
ACTCAATC	0.173
TAGTTAGA	0.0258
CAGGTGCG	0.00412
AGTCGTGC	-0.314

Sequence	PBM E-score
AGGTCCCC	-0.313
TCCTATAA	0.0701
CAATAATG	0.113
GAAGACAA	0.11
TGAAGAAA	0.138
GCCTAGAA	-0.125
CTATCCGA	-0.0289
CCACATCC	-0.138
CAGACTGG	-0.235
CCAAATCC	-0.232
GCGAGGGA	-0.223
ACATTTCC	0.13
ACATGTTG	0.161
GATTCAGC	-0.0798
ATAGCGTC	0.138
GCCACGCC	-0.126
CACTTCGA	0.245
CTACAGGC	-0.226
GGTTGTAC	-0.145
CAAAAATA	0.274
GTCGAAAC	-0.0882
ATGAACGC	0.129
GAACCGTA	-0.169
CCGCAGCG	-0.0459
GCGTAAAC	0.168

Sequence	PBM E-score
CTCGCTGA	-0.0965
ACTTTGGC	-0.252
ACTATCGA	0.0683
ATAAAACG	0.243
AGGGGTGA	-0.0823
CAAACGGG	-0.0479
CCTCACAC	-0.028
ACTACTGC	-0.132
CGAGCTCC	-0.122
GTTCCTAA	-0.062
GCATGAGA	0.0222
ACATTGAC	0.212
CCAACTCA	-0.023
GGCACAAC	0.124
CAAAGGTA	-0.0756
TGTTCCAA	0.108
GCGACCAC	-0.108
AGAACCGA	-0.127
GTACCCAA	-0.145
CACATCTA	0.252
GACTAGTC	-0.332
AGTATACC	0.0587
CAGAACCC	-0.252
CTGCCCTC	-0.253
AATGTCCC	-0.249

Sequence	PBM E-score
AGACCGGC	-0.168
AATCCGAA	-0.0449
GCATTTCA	0.0358
GATATGGA	0.154
AGGTTCGG	-0.224
ATACATTA	0.19
AGGCGACA	-0.0556
ATCCGTGG	-0.155
AAGCTGGC	-0.0805
CAGGGAAA	-0.143
TACCCTAA	-0.0225
GTGCAACA	-0.192
GTGTGATA	0.235
AGGTTTAT	0.0862
CACTTACC	0.0685
CGGGGAAA	0.0991
TGCCATAA	0.00753
GAAGTAAC	0.146
CGATGTTA	0.131
CCTGTGCG	-0.0438
CAACTTAA	0.113
AGTAGAAA	0.186
AAGGAGCG	-0.205
GACGTTAC	0.315
GTCTGGAA	-0.135

Sequence	PBM E-score
AATTCACC	0.0605
GATATCCC	-0.163
AAGATGGC	-0.00831
ATGATCGA	0.166
ACGGATCC	-0.0118
CAATGTGC	0.0457
GATATGCA	-0.0755
AGGGTACC	-0.3
GCGACATA	0.0207
CTCAGTTC	-0.108
ATAATGAG	0.0695
CACACCTG	-0.186
GCCTACCA	-0.209
AGGCACGG	0.173
CCATGCTA	-0.155
ATCTGTCG	0.0445
ATCCCTTA	-0.0902
TCTTCAAA	0.0166
GCATAGTA	0.033
AAGACGTG	-0.06
AGATTGAT	0.159
GCCGTCTA	0.105
CATGTTGA	0.273
GTGCATGA	0.181
ACCATAGA	0.0571

Sequence	PBM E-score
CGTCGATC	0.174
CTCATCGC	-0.0477
CTAACAAA	0.173
TACACACA	0.217
AACCAGTA	0.0474
AAGTCTTA	-0.0346
GTAACAAC	0.0637
GGCGTGCA	-0.191
GCTAACAA	0.0514
AAACTGAT	0.0925
ATCCGCAC	0.123
CACAATCA	0.17
GGATACAC	-0.132
AGACGCAT	-0.0757
CCATAAAG	0.00545
ATCTTGCC	-0.00355
ACTTGTAG	0.0293
GACTTAGC	-0.229
ACCTCGGC	-0.0335
